42 sequences from PMC7819943, “Rice protein-binding microarrays: a tool to detect cis-acting elements near promoter regions in rice” can be followed below.

Some of the results follow.

The target in the experiment is T1, OsWOX13 (Oryza sativa, UniProt Q5QMM3 1-267).
T1 sequence: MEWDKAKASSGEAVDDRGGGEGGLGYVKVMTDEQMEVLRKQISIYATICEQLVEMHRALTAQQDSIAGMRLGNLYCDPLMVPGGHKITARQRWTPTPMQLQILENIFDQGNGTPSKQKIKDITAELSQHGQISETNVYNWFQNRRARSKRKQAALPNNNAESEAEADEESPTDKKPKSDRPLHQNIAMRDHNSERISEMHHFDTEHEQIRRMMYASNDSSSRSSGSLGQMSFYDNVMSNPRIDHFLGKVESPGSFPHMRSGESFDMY
The experiment in a line: protein-binding microarray (RPBM); PBS, 2% BSA, 51.3 ng/ul salmon testes DNA, 50 uM zinc acetate, 200 nM TF, 25 C, 1 h; high values mean tight binding. The note with it: protein: recombinant; tags: N-terminal polyhistidine and DsRed monomer fusion (pET32a); label: CyDye5-dUTP incorporated in the synthesized complementary strand; 3' TTTTT single-stranded linker to array surface; dsDNA, one strand shown. A digest of the protocol:
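The binding signal for each feature is its fluorescence intensity in arbitrary units. An Axon 4000B scanner was used to read a custom Agilent array that had been made double-stranded with Cy5-dUTP primer extension, blocked with 2% BSA, incubated at 25 °C for 1 h with 200 nM protein in PBS, 2% BSA, salmon testes DNA and 50 µM zinc acetate, and washed. The protein was an N-terminal polyhistidine–DsRed transcription factor fusion from E. coli BL21-CodonPlus, purified on Ni–NTA.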
“TCTTAATTAATATAATGTCACATAAGTTAAAAGTTCTAGTCGGAGTCACCTAGTGCAG”: the binding signal is 41000 fluorescence intensity (a.u.). On to “TAATTTAACGGGAACTAATTTGGTGTTGTAGATGTTGCTACGGAGTCACCTAGTGCAG”, for which the binding signal was 11600 fluorescence intensity (a.u.). In the case of “ATTTATAATTAGAGAATGTTTACTGTAGCATCACGCGGGCCGGAGTCACCTAGTGCAG”, the binding signal is 11100 fluorescence intensity (a.u.).

In the case of “GATGATAAATTTATCTGTGATCCTCAAGAAAAGCTTGGAACGGAGTCACCTAGTGCAG”, the binding signal was 24100 fluorescence intensity (a.u.).

Turning to “CAGTAGATTTGGATTAATAATTTAAGATCGCAGTAAGGTTCGGAGTCACCTAGTGCAG”, the binding signal is 28600 fluorescence intensity (a.u.).

Take “AGATGCTGATTGGTTGCGAACTATCTGTTCAATTTGCATCCGGAGTCACCTAGTGCAG”: the binding signal was 46300 fluorescence intensity (a.u.). For “TATTTTCCAATTAACCCATTTGGCATTGGTAGGATCTAGACGGAGTCACCTAGTGCAG” the value was 4650 fluorescence intensity (a.u.); for “ACATGATTACTTCTCACGTTTGCGTGCCCTGAGTTCTCTCCGGAGTCACCTAGTGCAG”, 36000 fluorescence intensity (a.u.); for “GAGACAAATCTTTTAAGCCTAATTGCTCCATGATTTGACACGGAGTCACCTAGTGCAG”, 15800 fluorescence intensity (a.u.).

Consider “CACGGGATTAGTAATTTTGTACTACTAGTGTGCCGTAGTTCGGAGTCACCTAGTGCAG”, for which the binding signal was 19900 fluorescence intensity (a.u.). For “GTGGACGCTTGTAATTGGCTAGGTGACAAATCTCATCTGCCGGAGTCACCTAGTGCAG”, the binding signal is 18200 fluorescence intensity (a.u.). In the case of “ATTGATAGTCTAAGTTATAAAAGTTTGACCATTTCCACTACGGAGTCACCTAGTGCAG” it was 6720 fluorescence intensity (a.u.); in that of “GTGAATTTGATAGGGCGATAAGGATAATAAACAAGAACATCGGAGTCACCTAGTGCAG”, 3540 fluorescence intensity (a.u.). For “ATTGATAATTACTTAAGTTTATTGAATAAGACGAACAGTCCGGAGTCACCTAGTGCAG” the value was 33700 fluorescence intensity (a.u.); for “AGACCCTGACAGTCTGACAGAATCCAGGTACAGAGTTCTACGGAGTCACCTAGTGCAG”, 5500 fluorescence intensity (a.u.); for “GTTAATTTGAACAACATTGGTTAGAGATAACATGAATTTACGGAGTCACCTAGTGCAG”, 11600 fluorescence intensity (a.u.). In the case of “CAAGAGAGTATGGGAGATTGACAAGTGGACCCATGGGCAACGGAGTCACCTAGTGCAG” it was 4220 fluorescence intensity (a.u.).

Consider “CAACCGCATAAATTGTTTCGCACTTACAGCTGGACCCTATCGGAGTCACCTAGTGCAG”, for which the binding signal is 3440 fluorescence intensity (a.u.). “ATAATGGGAAATGTGGGGTAGGATTGGTATTGGAAAATGACGGAGTCACCTAGTGCAG”: the binding signal was 3410 fluorescence intensity (a.u.).

For “GGACTAATTAGATTCAAAAGGTTCGTCTCGAGCTATCTATCGGAGTCACCTAGTGCAG”, the binding signal was 28100 fluorescence intensity (a.u.). For the sequence “TTGCAAAACTGGCTTAATTGATTCCATATTTCCATTCCACCGGAGTCACCTAGTGCAG”, the binding signal is 32200 fluorescence intensity (a.u.). For “ACGTGACATACTACATGTAAATAATTTTACCTTTTATCTTCGGAGTCACCTAGTGCAG” the value was 3950 fluorescence intensity (a.u.); for “TCAAATTCAAATTATTGAAACAGATCAATATGGCAAAATGCGGAGTCACCTAGTGCAG”, 8760 fluorescence intensity (a.u.). Turning to “CCACTAATTCCTAATACTTAACATGCAAAGATGCCACATCCGGAGTCACCTAGTGCAG”, the binding signal was 6370 fluorescence intensity (a.u.). For “ACAAACACGTAATAACATTAATTTCAATCTACACATCATACGGAGTCACCTAGTGCAG” the value was 9270 fluorescence intensity (a.u.); for “AAAATTTCAGCTCCAATCATCCAAAATCTTCCACATATACCGGAGTCACCTAGTGCAG”, 6860 fluorescence intensity (a.u.); for “AGATAAATTAAATAGTGGAATATTGTGATTTGATAAGAAGCGGAGTCACCTAGTGCAG”, 12200 fluorescence intensity (a.u.). In the case of “GTCCTGTTTGATTAAGCTTAGGATTATTATAATCTGCATTCGGAGTCACCTAGTGCAG” it was 6460 fluorescence intensity (a.u.); in that of “GAGTTTAATTAGAATCCTTATACCACAATACTAGACATCTCGGAGTCACCTAGTGCAG”, 12800 fluorescence intensity (a.u.).

On to “CATCCTCAATTAATTGGACATTCTATCTGTACGTGTACATCGGAGTCACCTAGTGCAG”, for which the binding signal is 32700 fluorescence intensity (a.u.). In the case of “TGCAAATTTGGATCAATGACATATAAGGGAAAAGCTAATTCGGAGTCACCTAGTGCAG” it was 10700 fluorescence intensity (a.u.); in that of “GGCAGGGAGAAATTGAATATAATCAAAGAACAGTACAACGCGGAGTCACCTAGTGCAG”, 4980 fluorescence intensity (a.u.). Take “TTACAACAATTACATTTATGAATGCTATACTAGGCTTATGCGGAGTCACCTAGTGCAG”: the binding signal was 3330 fluorescence intensity (a.u.). In the case of “AATTAATTTTAATCCCAATTCTCTTATATAGTGTGTATTACGGAGTCACCTAGTGCAG” it was 14500 fluorescence intensity (a.u.). For “ATATTATCTTGTTATTAGTAATTTGATATGAGACGGTGCGCGGAGTCACCTAGTGCAG” the value was 3790 fluorescence intensity (a.u.); for “ATTCCTGGTTGATTTAAAATCATTCCACTGTTGCTTCTCACGGAGTCACCTAGTGCAG”, 13500 fluorescence intensity (a.u.); for “ATGTCTAACAGCTGATTTGTATAATCTCGGCTGGGCTGTCCGGAGTCACCTAGTGCAG”, 13400 fluorescence intensity (a.u.). Consider “GAGTAATTAAATTGAGAAATTATGATGGAGGACGAATATGCGGAGTCACCTAGTGCAG”, for which the binding signal was 28300 fluorescence intensity (a.u.).

Take “CATTTTGACTGACGTGAATGGTGTATTTAGTTGTGGATATCGGAGTCACCTAGTGCAG”: the binding signal was 22300 fluorescence intensity (a.u.). For “GATATTTTATGACCGGTTTTGATTAGTTAAGGGATGCGGGCGGAGTCACCTAGTGCAG” the value was 3910 fluorescence intensity (a.u.); for “TTTTCGTTTTAGGATTTATAAATTAATTAATAAATTACATCGGAGTCACCTAGTGCAG”, 4300 fluorescence intensity (a.u.); for “ATAATTTGTAATCCTGTAAAGAATTAGCAGAAATTCTCATCGGAGTCACCTAGTGCAG”, 7580 fluorescence intensity (a.u.).
